Reference: PubChem BioAssay (NCATS)
Where “and” joins values, the source holds several entries; their conditions need not be identical. Equal values may be shown once. The list shows a part of the results. Shown are side measurements of this screen, not its main read-out; they come without a call. For some of these results: Most of these compounds were active or inconclusive in the main read-out, so they are no random draw. For some of these results: The note in brackets gives the kind of curve behind each potency; many fits are weak.

Legend:
[1] = qHTS Assay for Lipid Storage Modulators (AID 1519); settings: Drosophila S3 cells, BODIPY lipid droplet/cell ratio, laser cytometry, cells loaded with oleic acid
Summary of the method: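 Cells seeded at 5,000 per well were treated with compounds over a concentration series and loaded with oleic acid (400 uM, as added). Lipid droplet fluorescence (488 nm excitation, 500-530 nm channel) was read by laser-scanning cytometry and normalized to 20 uM Triacsin C.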

[2] = qHTS Assay for Modulators of Human Peripheral Myelin Protein 22 (PMP22) Expression/Activity (AID 1967); settings: Cell-based PMP22 reporter, dual-color luciferase ratio
Summary of the method: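 Luminescence ratio of Pmp22 promoter-driven green luciferase to EF-alpha-driven red luciferase, in engineered mouse MSC80 Schwann cells, served as read-out. Compounds were incubated 24h; untreated cells defined 0% Activity; curves were classified by r2, magnitude and activity.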

[3] = biological target: Histamine N-methyltransferase (Homo sapiens) (UniProt P50135); assay: Confirmatory Screen for Target Class Profiling of Small Molecule Inhibitors of Methyltransferases (AID 1745852); settings: MTase-Glo luminescence, SAH detection, recombinant enzyme; measured here: HNMT inhibition potency;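 further: inhibitor potency for blocking SAH production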
Sequence of UniProt P50135 (P50135 whole entry, looked up): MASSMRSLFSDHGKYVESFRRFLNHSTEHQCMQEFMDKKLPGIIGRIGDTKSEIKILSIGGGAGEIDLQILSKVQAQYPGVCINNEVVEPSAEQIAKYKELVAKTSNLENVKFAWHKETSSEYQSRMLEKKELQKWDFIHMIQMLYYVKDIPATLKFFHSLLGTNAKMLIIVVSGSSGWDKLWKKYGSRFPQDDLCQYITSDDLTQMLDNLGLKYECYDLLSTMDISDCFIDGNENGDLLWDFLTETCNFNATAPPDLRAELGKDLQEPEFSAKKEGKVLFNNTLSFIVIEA

[4] = qHTS Validation Assay to Find Inhibitors of Chronic Active B-Cell Receptor Signaling (AID 485345); settings: ABC-DLBCL cells, chronic BCR signaling reporter
Summary of the method: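 Read-out: ratio of filter-corrected green (IkappaBalpha fusion) to red (native) luciferase signal in doxycycline-induced TMD8 cells after 4 h at 37C. Titration spanned 46 uM–3 nM; Data were normalised to basal cells and 10 uM MG-132 wells.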

[5] = qHTS for identification of novel therapeutic agents for treatment of microphthalmiaassociated transcription factor (MiT) renal cell carcinoma (RCC) (AID 1963991); settings: CellTiter-Glo, 48 h; for z-score: stronger effect = lower value; for AC50: measured here: UOK145 cell viability
Summary of the method: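 Three TFE3-fusion RCC lines (UOK109, UOK124, UOK145), 500 cells/well in complete medium, were treated with MIPE 4.0 compounds for 48 hours at 37 C. Viability was by CellTiter-Glo luminescence, normalized to DMSO (100%) and empty wells (0%); curves fitted over 11 concentrations.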

[6] = qHTS assay for small molecule antagonists of peroxisome proliferator-activated receptor gamma signaling (AID 588537); settings: HEK293 PPARg-UAS-bla, beta-lactamase ratio, antagonist mode; measured here: W460 blue channel
Summary of the method: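 Antagonist mode, beta-lactamase reporter in HEK293; charcoal/dextran FBS 1%; 3000 cells/well, 37 C 6-6.5 h; cpd titration + rosiglitazone 50 nM final, 16 h 37 C; CCF4, 2 h RT; 460/530 nm; Hill fit → IC50, efficacy.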

[7] = qHTS drug screen for cell cycle checkpoint inhibitors in PARPi-resistant BRCA-mutant ovarian cancer cell lines. (AID 1963452); settings: PEO1/OlaR viability, CellTiter-Glo luminescence, 96 h
Summary of the method: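 PEO1, PEO4 and PEO1/OlaR ovarian cancer cells, 600 per well, exposed 96 h at 37C to a dilution series. Viability read by CellTiter-Glo luminescence, normalized to DMSO and empty wells; activity summarized as Z-AUC.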

[8] = measured here: cell count channel max response
[9] = measured here: lipid channel max response
[10] = measured here: red reporter channel AC50, EF-alpha promoter control reporter in MSC80 mouse Schwann cells
[11] = measured here: green reporter channel AC50, mouse Pmp22 promoter in mouse Schwann cells
[12] = TFE3-RCC UOK109 viability, measured here: UOK109 Z-AUC
[13] = TFE3-RCC viability, measured here: UOK124 Z-AUC
[14] = TFE3-RCC viability, measured here: UOK145 Z-AUC
[15] = measured here: PEO1 parental viability
Tags describe the fitted curve by direction and shape.

Structure (SMILES): CCCCS(=N)(=O)CC[C@H](N)C(=O)O (stereo partly drawn)
- max response [1, 8]: 35.2%
- max response [1, 9]: 36.3%
- AC50 [2, 10]: 84.9 µM [falling, single point]

Structure (SMILES): CSc1nc(N)c2ncn([C@@H]3O[C@H](COP(=O)(O)OP(=O)(O)OP(=O)(O)O)[C@H](O)[C@H]3O)c2n1
- max response [1, 8]: 68.7%
- max response [1, 9]: 70.1%
- AC50 [2, 10]: 84.9 µM [falling, single point]

Structure (SMILES): CN(C)C(N)=NCCC[C@H](N)C(=O)O
- max response [1, 8]: 48.3%
- max response [1, 9]: 51.9%
- AC50 [2, 10]: 95.3 µM [falling, single point]

Structure (SMILES): COc1ccccc1CNCCCCCCNCCCCCCCCNCCCCCCNCc1ccccc1OC
- max response [1, 8]: 64.6%
- max response [1, 9]: 67%
- AC50 [2, 11]: 84.9 µM [falling, single point]
- AC50 [2, 10]: 67.5 µM [falling, partial curve]
- IC50 [3]: 19.3 µM [falling, partial curve]

Structure (SMILES): NCCNC(=O)c1ncsc1-c1cccc(F)c1
- max response [1, 8]: 67.6%
- max response [1, 9]: 69.5%
- AC50 [2, 10]: 84.9 µM [falling, single point]

Structure (SMILES): O[Si](CCCN1CCCCC1)(c1ccc(F)cc1)C1CCCCC1 (stereo not drawn)
- max response [1, 8]: 51.7%
- max response [1, 9]: 51.7%
- AC50 [2, 11]: 42.6 µM [falling, full curve]
- AC50 [2, 10]: 37.9 µM [falling, full curve]

Structure (SMILES): CC(N)(Cc1ccc(O)c(O)c1)C(=O)O (stereo not drawn)
- max response [1, 8]: 38.4%
- max response [1, 9]: 38.1%
- AC50 [2, 11]: 84.9 µM [falling, single point]
- AC50 [2, 10]: 95.3 µM [falling, single point]

Structure (SMILES): Cc1nc2c([nH]1)c(=O)n(C)c(=O)n2Cc1ccco1
- max response [1, 8]: 44.1%
- max response [1, 9]: 44.8%
- AC50 [2, 10]: 84.9 µM [falling, single point]

Structure (SMILES): COC(=O)[C@H]1[C@H]2C[C@H]3c4[nH]c5ccccc5c4CCN3C[C@H]2CC[C@@H]1O
- max response [1, 8]: 45.9%
- max response [1, 9]: 42.1%
- AC50 [2, 10]: 75.7 µM [falling, single point]

Structure (SMILES): NC(=NCc1ccccc1)NC(=O)c1nc(Cl)c(N)nc1N
- max response [1, 8]: 58.6%
- max response [1, 9]: 59.2%
- AC50 [2, 10]: 53.6 µM [falling, partial curve, poor fit]
- AC50 ([4]; measured here: CBG/CBR ratio read-out): 29.1 µM [falling, single point]
- AC50 ([4]; measured here: CBR control luciferase (viability counter)): 25.9 µM [falling, single point]
- z-score [5, 12]: 0.211
- z-score [5, 13]: 0.668
- z-score [5, 14]: -0.0201
- AC50 ([5]; TFE3-RCC viability): 14.8 µM [falling, partial curve]

Structure (SMILES): NC1(C(=O)O)CC1
- max response [1, 8]: 42.9%
- max response [1, 9]: 42.2%
- AC50 [2, 10]: 84.9 µM [falling, single point]

Structure (SMILES): CCC1(c2ccccc2)C(=O)NCNC1=O
- max response [1, 8]: 50.9%
- max response [1, 9]: 50.3%
- AC50 [6]: 70.8 µM [rising, single point]
- AC50 [7, 15]: 1.74 µM [rising, partial curve]
- z-score [5, 12]: -0.0287
- z-score [5, 13]: 0.998
- z-score [5, 14]: -0.559
- AC50 ([5]; TFE3-RCC viability): 6.62 µM [falling, full curve]

Structure (SMILES): CC(C)NC[C@H](O)COc1ccc(CC(N)=O)cc1
- max response [1, 8]: 57.6% and 37.9%
- max response [1, 9]: 55.8% and 41.9%
- AC50 [2, 10]: 84.9 µM [falling, single point]

Structure (SMILES): NC(CO)C(=O)NNCc1ccc(O)c(O)c1O (stereo not drawn)
- max response [1, 8]: 69%
- max response [1, 9]: 71.4%
- AC50 [2, 11]: 84.9 µM [falling, single point]
- AC50 [2, 10]: 84.9 µM [falling, single point]
- AC50 ([7]; measured here: PEO4 viability): 13.8 µM [falling, partial curve]

Structure (SMILES): COc1cccc(-c2cc(=O)c3ccccc3o2)c1N
- max response [1, 8]: 93.1%
- max response [1, 9]: 122%
- AC50 [2, 11]: 0.379 µM [rising, full curve, poor fit]
- AC50 [2, 10]: 1.69 µM [rising, full curve]
- AC50 [7, 15]: 24.5 µM [falling, single point]
- AC50 ([7]; measured here: PEO4 viability): 21.9 µM [falling, single point]
- z-score [5, 12]: -0.599
- z-score [5, 13]: 0.3
- z-score [5, 14]: -0.374
- AC50 ([5]; TFE3-RCC viability): 20.9 µM [falling, partial curve]

Structure (SMILES): CCN(CC)CCCC(C)Nc1ccnc2cc(Cl)ccc12 (stereo not drawn)
- max response [1, 8]: 47.7%
- max response [1, 9]: 46.5%
- IC50 [3]: 1.36 µM [falling, partial curve]
- z-score [5, 12]: -0.689
- z-score [5, 13]: 0.768
- z-score [5, 14]: -0.0305
- AC50 ([5]; TFE3-RCC viability): 10.5 µM [falling, partial curve, poor fit]

Structure (SMILES): OC[C@H]1O[C@@H](n2cnc3c(Nc4ccccc4)ncnc32)[C@H](O)[C@H]1O
- max response [1, 8]: 32.9%
- max response [1, 9]: 34.9%
- AC50 [2, 10]: 75.7 µM [falling, single point]

Structure (SMILES): c1ccc2c(c1)CC(N1CCN(c3cccc4c3OCCO4)CC1)C2
- max response [1, 8]: 53.5%
- max response [1, 9]: 57%
- AC50 [2, 10]: 23.9 µM [rising, single point]

Structure (SMILES): CC1COc2c(N3CCN(C)CC3)c(F)cc3c(=O)c(C(=O)O)cn1c23 (stereo not drawn)
- max response [1, 8]: 34.6%
- max response [1, 9]: 36.3%
- z-score [5, 12]: 0.0527
- z-score [5, 13]: 0.65
- z-score [5, 14]: -0.0295
- AC50 ([5]; TFE3-RCC viability): 5.26 µM [falling, partial curve, poor fit]
